The source of these data is PubChem BioAssay AID1159614 (National Center for Advancing Translational Sciences (NCATS), 2016).

The whole screen tested about 45,000 compounds, of which about 65 (0.1%) were called active. The call rests on the fitted dose curve; in most records, active means well fitted activation curve with a large enough effect; inconclusive means small, poorly fitted or top-dose-only effect; inactive means no such curve, though single readings can be large or run the other way. The list shows a part of the results.

Sequence of UniProt P54803 (P54803 whole entry, looked up): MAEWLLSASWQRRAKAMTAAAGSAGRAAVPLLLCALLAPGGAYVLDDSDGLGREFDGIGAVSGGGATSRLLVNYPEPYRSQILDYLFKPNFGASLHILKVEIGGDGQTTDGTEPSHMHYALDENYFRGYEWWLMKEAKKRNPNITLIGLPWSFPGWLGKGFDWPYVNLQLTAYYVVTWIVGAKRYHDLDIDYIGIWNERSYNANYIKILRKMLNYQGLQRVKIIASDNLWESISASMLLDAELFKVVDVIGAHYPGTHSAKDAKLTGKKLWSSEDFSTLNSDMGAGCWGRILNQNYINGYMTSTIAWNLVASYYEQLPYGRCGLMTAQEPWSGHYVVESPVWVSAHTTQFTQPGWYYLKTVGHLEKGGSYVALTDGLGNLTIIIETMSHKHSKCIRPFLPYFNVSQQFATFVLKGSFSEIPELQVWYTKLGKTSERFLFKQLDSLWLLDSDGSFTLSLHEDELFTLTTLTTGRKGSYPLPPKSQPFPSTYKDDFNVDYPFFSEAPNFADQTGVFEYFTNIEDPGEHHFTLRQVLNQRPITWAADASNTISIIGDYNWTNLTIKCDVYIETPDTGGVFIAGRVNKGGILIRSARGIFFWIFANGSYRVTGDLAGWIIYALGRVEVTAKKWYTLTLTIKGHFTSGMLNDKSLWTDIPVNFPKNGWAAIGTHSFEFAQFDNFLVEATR

The assay addresses Galactocerebrosidase (Homo sapiens) (UniProt P54803). In words: A Novel Cell-Based Assay to Identify Small Molecules for B -Galactocerebrosidase. Further: 0% is about no effect; nearly all actives have a fitted effect of over 65% in size. Conditions: 145M-Twi-hGALC-G270D cells (Twitcher mouse brain line with human GALC G270D), HMU-beta-Gal fluorescence, 48 h; series mostly up to 57.5 µM; activation: at the top concentration. The gist of the method:
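Fluorescence readout: HMU-β-gal cleavage by mutant GALC (0.1 mM final, citrate/phosphate pH 5.2 with 1 mg/mL taurocholate), stopped with carbonate/bicarbonate plus Triton X-100. Cells: murine Twitcher 145M-Twi expressing human G270D GALC; qHTS for activators.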
Turning to `N#CSCC(=O)O`, the “activation” value is inactive: -16.1%.

Take `Cc1ccc2oc(=O)c3cc(C(=O)Nc4ccccc4C(N)=O)sc3c2c1`: the “activation” value was inactive: -2.17%.

Take `COc1ccc(-c2cc(C(F)(F)F)nc(SCC(=O)N3CCCCC3C)n2)cc1OC` (stereo not given): the “activation” value is inactive: -13.2%.

Take `CCc1cccc(C)c1NC(=O)C1CCN(c2nn3c(=O)cc(C)nc3s2)CC1`: the “activation” value is inactive: -13.8%.

Regarding `Cc1ccc(-n2nc3c(N4CCC(C(=O)NC(C)c5ccccc5)CC4)nnc(C)c3c2C)cc1` (stereo not given), the “activation” value is inactive: -17.8%.

In the case of `CCOc1ccc(Nc2cc(C)nc3nc(Cc4ccc(Cl)cc4)nn23)cc1`, the “activation” value is inactive: -4.14%.

Regarding `O=C(CCCl)NCCc1ccccc1`, the “activation” value is inactive: -10.6%.

For `COc1ccccc1N1CCN(C(=O)c2c(C)oc3ncn(CC(C)C)c(=O)c23)CC1`, the “activation” value was inactive: -6.88%.

As to `O=C(Cn1ccc2ccccc2c1=O)NCCC(=O)Nc1ccc(F)cc1F`, the “activation” value is inactive: -14.4%.

Consider `Cc1cccc(NC(=O)Nc2ccc(Br)cc2)n1`, for which the “activation” value was inactive: -30.7%.

For `COc1ccc(CCNC(=O)c2cc3c(s2)-c2ccccc2OC3)cc1OC`, the “activation” value was inactive: -14.1%.

For `O=C1CCCc2cc(S(=O)(=O)NCC3CCC(C(=O)NCc4ccccc4Cl)CC3)ccc2N1` (stereo not given), the “activation” value is inactive: -7.41%.

In the case of `CCOCCCn1c(=N)c(C(=O)NCc2cccnc2)cc2c(=O)n3cc(C)ccc3nc21`, the “activation” value is inactive: -13.3%.

On to `CCOC(=O)c1cnc2c(ccc3ccccc32)c1Nc1ccc(OCC)cc1`, for which the “activation” value is inactive: -15.2%.

`COc1ccc(S(=O)(=O)c2c(O)c3ccc(C(=O)NCc4ccccc4)cc3[nH]c2=O)cc1`: the “activation” value was inactive: -17.9%.

As to `COc1ccc(-c2cc(C(=O)Oc3cccc(C)c3)c3cc(C)ccc3n2)cc1`, the “activation” value was inactive: -7.46%.

As to `O=C(COc1ccccc1F)OCc1cc(=O)n2nc(C3CC3)sc2n1`, the “activation” value is inactive: 2.56%.

`Cc1oc2ncn(CC(C)C)c(=O)c2c1C(=O)NCCCN1CCC(C)CC1`: the “activation” value is inactive: -7.97%.

`Cc1cc(C)cc(-n2c(C)nc3cc(C(=O)NCc4ccccc4Cl)ccc32)c1`: the “activation” value was inactive: -24.9%.

`COc1cccc(C(=O)Nc2ccc(-n3nncc3-c3ccccc3)cc2)c1`: the “activation” value is inactive: -4.88%.

For `Cc1ccc(NC(=O)CN2C(=O)CCc3cc(S(=O)(=O)N4CCCCC4)ccc32)cc1C`, the “activation” value was inactive: -2.37%.

Take `CCN(CC)Cc1c(NC(=O)c2ccc(OC)cc2)sc2c1CCCC2`: the “activation” value was inactive: 2.41%.

Consider `CC(=O)Nc1ccc(Nc2nc3c(S(=O)(=O)c4cccc(Cl)c4)nnn3c3ccsc23)cc1`, for which the “activation” value was inactive: -9.6%.

As to `Cc1ccc(C)c(-c2nnc(NC(=O)c3ccc4c(c3)OCCO4)o2)c1`, the “activation” value was inactive: -15%.

In the case of `COc1ccc(CCNC(=O)Cn2c(=O)c3cccn3c3ccc(F)cc32)c(OC)c1`, the “activation” value was inactive: -13.8%.

In the case of `CSc1ccc(C2c3c(oc4cc(C)cc(C)c4c3=O)C(=O)N2CCO)cc1` (stereo not given), the “activation” value is inactive: -7.04%.

Take `Cc1nc2sc(C(=O)N(C)c3ccccc3)c(NC(=O)c3ccccc3Cl)c2c(C)c1C`: the “activation” value is inactive: -7.9%.

In the case of `Cc1ccc(CN(C(=O)COc2ccc(Cl)cc2C)C2CCS(=O)(=O)C2)o1` (stereo not given), the “activation” value is inactive: -17.1%.

Regarding `CCCn1c(=O)c2c(nc3n2CCN3c2ccc(C)cc2)n(C)c1=O`, the “activation” value was inactive: -12.7%.

`CC[C@@H](C)[C@@H](C(=O)Nc1ccc(C)cc1)N1Cc2ccccc2C1=O`: the “activation” value was inactive: -13%.

As to `Cc1ccc(OCC(=O)N(Cc2ccco2)Cc2ccco2)cc1C`, the “activation” value is inactive: -9.34%.

Consider `CC(C)CCNC(=O)CCn1c(=O)c2cccn2c2cccnc21`, for which the “activation” value was inactive: -7.45%.

Turning to `COc1cn(CC(=O)Nc2ccccc2)c(CN2CCCCC2)cc1=O`, the “activation” value was inactive: -6.72%.

As to `CCOc1ccc(NC(=O)N(Cc2c[nH]c3ccccc23)C2CCCCCC2)cc1`, the “activation” value is inactive: -11.9%.

As for `CCN(CC)C(=O)C1CN2CCc3cc(OC)c(OC)cc3C2CC1OC(C)=O` (stereo not given), the “activation” value is inactive: -13.2%.

Turning to `COc1ccc(C2C(C(=O)Nc3ccccc3OC)=C(C)Nc3c(C(=O)Nc4ccccc4)cnn32)c(OC)c1` (stereo not given), the “activation” value is inactive: 2.69%.

For `Cc1ccc(CNC(=O)Nc2cn(CC(C)C)c(=O)c3ccccc23)cc1`, the “activation” value was inactive: -25%.

Consider `Cc1ccnc(NC(=O)c2c(C)oc3ncn(CC(C)C)c(=O)c23)c1`, for which the “activation” value is inactive: -16.9%.

Take `CCc1ccc(-c2nc(CN3CCCC(C(=O)NCc4ccc(C)cc4)C3)c(C)o2)cc1` (stereo not given): the “activation” value is inactive: -10.1%.

`CN1CCN(N)CC1`: the “activation” value is inactive: -14.9%.

Turning to `CCn1cc2nc(SCC(=O)Nc3ccccc3F)n(Cc3ccc(C)cc3)c(=O)c2n1`, the “activation” value was inactive: -13.9%.

Consider `COc1ccc(-c2cc3nc(C)c(CCC(=O)Nc4cccc(C(F)(F)F)c4)c(C)n3n2)c(OC)c1`, for which the “activation” value is inactive: -9.32%.

In the case of `Cc1nnc(SCc2ccccc2Cl)c2cc3sccc3n12`, the “activation” value was inactive: -1.09%.

For `O=C(Nc1sc2c(c1C(=O)Nc1ccc(Cl)cc1)CCCC2)c1cccs1`, the “activation” value was inactive: -3.82%.

Consider `Cc1ccc(C(=O)Nc2ccccc2C(=O)O)cc1S(=O)(=O)N1CCCCCC1`, for which the “activation” value is inactive: -12.1%.

Take `CCCCCOc1ccc(NC(=O)Cc2csc(C)n2)cc1`: the “activation” value is inactive: -6.65%.

For the compound `COCC(C)NC(=O)c1cnn2c(C(F)F)cc(-c3ccccc3)nc12` (stereo not given), the “activation” value is inactive: -11.1%.

As for `CN(C(=O)Cn1cc(S(=O)(=O)N2CCN(c3ccccc3F)CC2)c2ccccc2c1=O)c1ccc(Cl)cc1`, the “activation” value was inactive: -13.6%.

In the case of `O=C(NCCCN1CCN(c2ccccc2F)CC1)c1cc2c(Cl)nc3ccccc3c2s1`, the “activation” value was inactive: 3.25%.

Consider `Cc1cc(C)c(NC(=O)CN2c3ccccc3S(=O)(=O)c3ccccc32)c(C)c1`, for which the “activation” value is inactive: -10.4%.

Regarding `Clc1ccc2nsnc2c1NC1=NCCN1`, the “activation” value is inactive: -12.6%.

Turning to `CCOc1ccc(NC(=O)c2cnn(-c3ccc(C)c(Cl)c3)c2C2CCNCC2)cc1`, the “activation” value was inactive: -13.2%.

`COc1cc(OC)c(NC(=O)C(NS(=O)(=O)c2cccc3nsnc23)c2ccccc2)cc1Cl` (stereo not given): the “activation” value was inactive: -21.4%.

Regarding `Cc1ccc(CN2COc3cc(C)c4c(oc(=O)c5ccccc54)c3C2)cc1`, the “activation” value was inactive: -2.5%.

As to `CN1CCN(CCCNC(=O)Cn2c(-c3cccs3)cc3cc(Cl)ccc32)CC1`, the “activation” value was inactive: -14.3%.

Regarding `CCOc1cc(C2NC(=O)c3c(sc4c3CCN(C)C4)N2)ccc1OC(=O)c1ccccc1Cl` (stereo not given), the “activation” value is inactive: -13%.

Regarding `COc1ccc(-c2[nH]c(-c3ccccc3)nc2SCC(=O)Nc2ccc3c(c2)OCCO3)cc1`, the “activation” value was inactive: -13.1%.

In the case of `Cc1ccc2[nH]c(C(=O)Nc3ccccc3)cc2c1`, the “activation” value is inactive: -9.51%.

Consider `O=C(NC1CC(=O)N(c2ccc3c(c2)OCCO3)C1)c1c(F)cccc1Cl` (stereo not given), for which the “activation” value was inactive: -5.46%.

For `O=C(NCCc1csc(-c2ccc(F)cc2)n1)c1cccs1`, the “activation” value is inactive: -12.7%.

`COc1ccc(NC(=O)Cn2c(=O)cc(C)c3c(C)nn(-c4cccc(Cl)c4C)c32)cc1OC`: the “activation” value was inactive: -10.9%.

Take `COc1ccc(-c2noc(CSc3nnc(Cc4ccccc4)n3-c3ccccc3)n2)cc1OC`: the “activation” value is inactive: -34.8%.

As for `CCOC(=O)c1cc(-c2ccccc2)n(CC(=O)NC2CCC(C)CC2)c1C` (stereo not given), the “activation” value was inactive: -17.5%.

Consider `CCOC(=O)c1cnc2c(ccc3ccccc32)c1Nc1ccccc1OC`, for which the “activation” value was inactive: -49.8%.

For the compound `Cc1ccc(S(=O)(=O)CCC(=O)Nc2ccc(Br)cc2C)cc1`, the “activation” value is inactive: 2.76%.
